# Laboratory results: the supplement of paper PMC8728848
# This is one part of the list.
# B1: SJA (Sophora japonica) (protein)
# chain: FLGLFNSGGYSSSYQIVAVEFDTYINEWDPKTRHIGIDINSINSTKTVTWGWENGEVAIVLISYKAATETLTVSLTYPSSQTSYILSAAVDLKSILPEWVRIGF
# What was measured:
# Experiment in all cases: glycan array binding signal (z-score within array); higher = stronger binding
# Settings in all cases: glycan notation: IUPAC condensed, linker removed
# GlcNAc(b1-3)GalNAc = target: GlcNAc(b1-3)GalNAc
# In short: (§1)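 The binding signal is a Z-score computed within each array and averaged over linkers. Arrays of the same protein sequence at different concentrations or buffers were also averaged together. Data originate from 3228 arrays in the Consortium for Functional Glycomics database, kept only where the protein sequence was available.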
# GlcNAc(b1-3)Man = target: GlcNAc(b1-3)Man
# In short: as §1
# [1] = target: GlcNAc(b1-3)[GlcNAc(b1-4)][GlcNAc(b1-6)]GlcNAc
# In short: as §1
# [2] = target: GlcNAc(b1-3)[GlcNAc(b1-6)]Gal(b1-4)GlcNAc
# In short: as §1
# [3] = target: GlcNAc(b1-3)[GlcNAc(b1-6)]GalNAc
# In short: as §1
# [4] = target: GlcNAc(b1-3)[GlcNAc(b1-6)]GlcNAc(b1-4)GlcNAc
# In short: as §1
# [5] = target: GlcNAc(b1-4)Gal(b1-4)GlcNAc
# In short: as §1
# GlcNAc(b1-4)GlcNAc = target: GlcNAc(b1-4)GlcNAc
# In short: as §1
# [6] = target: GlcNAc(b1-4)GlcNAc(b1-4)GlcNAc
# In short: as §1
# [7] = target: GlcNAc(b1-4)GlcNAc(b1-4)GlcNAc(b1-4)GlcNAc(b1-4)GlcNAc
# In short: as §1
# [8] = target: GlcNAc(b1-4)GlcNAc(b1-4)GlcNAc(b1-4)GlcNAc(b1-4)GlcNAc(b1-4)GlcNAc
# In short: as §1
# [9] = target: GlcNAc(b1-4)[GlcNAc(b1-6)]GalNAc
# In short: as §1
# [10] = target: GlcNAc(b1-6)Gal(b1-4)GlcNAc
# In short: as §1
# GlcNAc(b1-6)GalNAc = target: GlcNAc(b1-6)GalNAc
# In short: as §1
# [11] = target: GlcNAc6S(b1-3)Gal(b1-4)GlcNAc
# In short: as §1
# Kdn(a2-3)Gal(b1-3)GalNAc = target: Kdn(a2-3)Gal(b1-3)GalNAc
# In short: as §1
# Kdn(a2-3)Gal(b1-3)GlcNAc = target: Kdn(a2-3)Gal(b1-3)GlcNAc
# In short: as §1
# Kdn(a2-3)Gal(b1-4)Glc = target: Kdn(a2-3)Gal(b1-4)Glc
# In short: as §1
# Kdn(a2-3)Gal(b1-4)GlcNAc = target: Kdn(a2-3)Gal(b1-4)GlcNAc
# In short: as §1
# [12] = target: Kdn(a2-3)Gal(b1-4)[Fuc(a1-3)]GlcNAc
# In short: as §1
# Kdn(a2-6)Gal(b1-4)GlcNAc = target: Kdn(a2-6)Gal(b1-4)GlcNAc
# In short: as §1
# [13] = target: Man(a1-2)Man(a1-2)Man(a1-3)Man
# In short: as §1
# [14] = target: Man(a1-2)Man(a1-2)Man(a1-6)[Man(a1-3)]Man
# In short: as §1
# Man(a1-2)Man(a1-3)Man = target: Man(a1-2)Man(a1-3)Man
# In short: as §1
# [15] = target: Man(a1-2)Man(a1-3)[Man(a1-2)Man(a1-6)]Man
# In short: as §1
# [16] = target: Man(a1-2)Man(a1-3)[Man(a1-2)Man(a1-6)]Man(a1-6)[Man(a1-2)Man(a1-2)Man(a1-3)]Man
# In short: as §1
# [17] = target: Man(a1-2)Man(a1-3)[Man(a1-2)Man(a1-6)]Man(a1-6)[Man(a1-2)Man(a1-2)Man(a1-3)]Man(b1-4)GlcNAc(b1-4)GlcNAc
# In short: as §1
# [18] = target: Man(a1-2)Man(a1-3)[Man(a1-6)]Man(a1-6)[Man(a1-2)Man(a1-3)]Man(b1-4)GlcNAc(b1-4)GlcNAc
# In short: as §1
# [19] = target: Man(a1-2)Man(a1-6)[Man(a1-3)]Man(a1-6)[Man(a1-2)Man(a1-2)Man(a1-3)]Man
# In short: as §1
# [20] = target: Man(a1-2)Man(a1-6)[Man(a1-3)]Man(a1-6)[Man(a1-2)Man(a1-2)Man(a1-3)]Man(b1-4)GlcNAc(b1-4)GlcNAc
# In short: as §1
# Man(a1-3)[Man(a1-6)]Man = target: Man(a1-3)[Man(a1-6)]Man
# In short: as §1
# [21] = target: Man(a1-3)[Man(a1-6)]Man(a1-6)[Man(a1-2)Man(a1-3)]Man(b1-4)GlcNAc(b1-4)GlcNAc
# In short: as §1
# [22] = target: Man(a1-3)[Man(a1-6)]Man(a1-6)[Man(a1-3)]Man
# In short: as §1
# [23] = target: Man(a1-3)[Man(a1-6)]Man(a1-6)[Man(a1-3)]Man(b1-4)GlcNAc(b1-4)GlcNAc
# In short: as §1
# [24] = target: Man(a1-3)[Man(a1-6)]Man(b1-4)GlcNAc(b1-4)GlcNAc
# In short: as §1
# [25] = target: Man(a1-3)[Man(a1-6)]Man(b1-4)GlcNAc(b1-4)[Fuc(a1-6)]GlcNAc
# In short: as §1
# Man(a1-6)Man = target: Man(a1-6)Man
# In short: as §1
# Man(b1-4)GlcNAc = target: Man(b1-4)GlcNAc
# In short: as §1
# MurNAc(b1-4)GlcNAc = target: MurNAc(b1-4)GlcNAc
# In short: as §1
# Neu5Ac(a2-3)Gal = target: Neu5Ac(a2-3)Gal
# In short: as §1
# [26] = target: Neu5Ac(a2-3)Gal(b1-3)GalNAc
# In short: as §1
# [27] = target: Neu5Ac(a2-3)Gal(b1-3)GalNAc(b1-3)Gal(a1-4)Gal(b1-4)Glc
# In short: as §1
# [28] = target: Neu5Ac(a2-3)Gal(b1-3)GalNAc(b1-3)Gal(b1-4)GlcNAc
# In short: as §1
# [29] = target: Neu5Ac(a2-3)Gal(b1-3)GalNAc(b1-4)[Neu5Ac(a2-3)]Gal(b1-4)Glc
# In short: as §1
# [30] = target: Neu5Ac(a2-3)Gal(b1-3)GalNAc(b1-4)[Neu5Ac(a2-8)Neu5Ac(a2-3)]Gal(b1-4)Glc
# In short: as §1
binder,measurement,setting,value
B1,glycan array binding signal (z-score),GlcNAc(b1-3)GalNAc,-0.136
same,glycan array binding signal (z-score),GlcNAc(b1-3)Man,0.024
same,glycan array binding signal (z-score),[1],-0.023
same,glycan array binding signal (z-score),[2],-0.254
same,glycan array binding signal (z-score),[3],-0.257
same,glycan array binding signal (z-score),[4],-0.15
same,glycan array binding signal (z-score),[5],-0.322
same,glycan array binding signal (z-score),GlcNAc(b1-4)GlcNAc,-0.142
same,glycan array binding signal (z-score),[6],0.023
same,glycan array binding signal (z-score),[7],-0.011
same,glycan array binding signal (z-score),[8],0.041
same,glycan array binding signal (z-score),[9],-0.206
same,glycan array binding signal (z-score),[10],0.05
same,glycan array binding signal (z-score),GlcNAc(b1-6)GalNAc,-0.146
same,glycan array binding signal (z-score),[11],-0.028
same,glycan array binding signal (z-score),Kdn(a2-3)Gal(b1-3)GalNAc,-0.152
same,glycan array binding signal (z-score),Kdn(a2-3)Gal(b1-3)GlcNAc,-0.149
same,glycan array binding signal (z-score),Kdn(a2-3)Gal(b1-4)Glc,-0.037
same,glycan array binding signal (z-score),Kdn(a2-3)Gal(b1-4)GlcNAc,-0.026
same,glycan array binding signal (z-score),[12],-0.238
same,glycan array binding signal (z-score),Kdn(a2-6)Gal(b1-4)GlcNAc,-0.287
same,glycan array binding signal (z-score),[13],-0.266
same,glycan array binding signal (z-score),[14],-0.219
same,glycan array binding signal (z-score),Man(a1-2)Man(a1-3)Man,-0.181
same,glycan array binding signal (z-score),[15],-0.284
same,glycan array binding signal (z-score),[16],-0.102
same,glycan array binding signal (z-score),[17],0.2
same,glycan array binding signal (z-score),[18],-0.199
same,glycan array binding signal (z-score),[19],-0.138
same,glycan array binding signal (z-score),[20],-0.24
same,glycan array binding signal (z-score),Man(a1-3)[Man(a1-6)]Man,-0.091
same,glycan array binding signal (z-score),[21],0.451
same,glycan array binding signal (z-score),[22],-0.024
same,glycan array binding signal (z-score),[23],-0.212
same,glycan array binding signal (z-score),[24],0.001
same,glycan array binding signal (z-score),[25],-0.263
same,glycan array binding signal (z-score),Man(a1-6)Man,-0.068
same,glycan array binding signal (z-score),Man(b1-4)GlcNAc,-0.188
same,glycan array binding signal (z-score),MurNAc(b1-4)GlcNAc,-0.252
same,glycan array binding signal (z-score),Neu5Ac(a2-3)Gal,-0.13
same,glycan array binding signal (z-score),[26],-0.245
same,glycan array binding signal (z-score),[27],0.481
same,glycan array binding signal (z-score),[28],-0.066
same,glycan array binding signal (z-score),[29],-0.065
same,glycan array binding signal (z-score),[30],-0.279
